Measurements taken from the supplement of paper PMC10338343.
± gives the standard deviation. Whole data set: some 3,000 sequences, median “pre-steady-state target cleavage rate” near 0.0079, cut for the highest 2% near 0.2. Only a part is listed here, and it is no random draw.

The sequences below were run on MILI (PIWIL2) piRISC loaded with piRNA #2 (26 nt) (assay: pre-steady-state target cleavage rate (min^-1); MIWI and MILI are mouse PIWI proteins and EfPiwi is from a freshwater sponge; tags in brackets are library labels; higher = faster piRNA-guided slicing of the target). Conditions: guide: piRNA #2 5'p-UUAGGUAACCCAGUAGAUCCAGAGGA; auxiliary factor: 500 nM mouse GTSF1.
Outline: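 Active affinity-purified piRISC carrying one synthetic guide (1 nM) was mixed with a transcribed, DNA-blocked target RNA library […] in HEPES–potassium acetate buffer at 33 °C for 0–8 or 0–960 min, with or without 500 nM GTSF1 partner protein. Uncleaved targets were then sequenced and normalised to depth and to weakly complementary targets. Three trials were pooled, and k3 was capped at 0.0001 min^-1. A burst-and-steady-state fit was applied to obtain the pre-steady-state cleavage rate.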
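Further: 1 nM active piRISC with 0.1 nM target library at 33 °C single turnover.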

Sequence	pre-steady-state target cleavage rate
CUUAACCUCUGGAUCUAGUGGGUUACCUAA	0.0781 ± 0.015
CUUAAGGACUGGAUCAACUGGGUUACCUAA	0.017 ± 0.013
CUUAAGGUCUGGAUCAACUGGGUAACCUAA	0.00828 ± 0.0054
CUUAAGGUCAGGAACUACUGGGUUACCUAA	0.0113 ± 0.0075
CUUAACCUCUGGAUCUACCGGGUUACCUAA	0.0865 ± 0.029
CUUAUCGUCUGCAUCUACUGGGUUACCUAA	0.115 ± 0.018
CUUAAGGUCUCGAUCUACUGCGUUACCUAA	0.00857 ± 0.0044
CUUAAGCUCUGGAUGUACUGGGUAACCUAA	0.0209 ± 0.0076
CUUAUCCGCUGGAUCUACUGGGUUACCUAA	0.113 ± 0.017
CUUAAGGAGAGGAUCUACUGGGUAUACCUAA	0.00494 ± 0.0048
CUUAAGGAGUGGAUCUACUGGGUUAACCUAA	0.0215 ± 0.0093
CUUAAGGUCUGGAUCUUCUGGGUUACGUAA	0.00936 ± 0.0036
CUUAACCUCUGCAUCAACUGGGUUACCUAA	0.0686 ± 0.016
CUUAAGGACUGGAUCUACUGUGUUACCUAA	0.00898 ± 0.0088
CUUAAGGACUGGACCUACUGGGUUACCUAA	0.0236 ± 0.0092
CUUAAGGACUGGAUCUACUGGGUUUACCUAA	0.0248 ± 0.015
CUUAAGGUCUGGUAUCUACUGGGUUACCUAA	0.0727 ± 0.016
CUUAACCUCUGUGAUCUACUGGGUUACCUAA	0.0857 ± 0.016
CUUAAGGUCUGGAUCUACUGGGUUACACUAA	0.106 ± 0.021
CUUAACCUCUCGAUCUACAGGGUUACCUAA	0.133 ± 0.015
CUUAAGGAGAGGAUCUACUGGGUUACCGUAA	0.00417 ± 0.004
CUUAAGGUCUGCAUCUACUGGGUAACCUAA	0.00707 ± 0.006
CUUAAGGUCUGAGAUCUACUGGGUUACCUAA	0.0683 ± 0.018

Sequence	pre-steady-state target cleavage rate
CUUAAGCUCUGGAUCUACUGGGUUACGUUA	0.07 ± 0.016
CUUAACCUGACGAUCUACUGGGUUACCUAA	0.0532 ± 0.02
CUUAUCCUCUGGAUCUACUGGGUGACCUAA	0.0696 ± 0.014
CUUAAGCUCUGCGAUCUACUGGGUUACCUAA	0.0353 ± 0.0099
CUUAUGCUCAGGAUCUACUGGGUUACCUAA	0.101 ± 0.017
CUUAAGGAGUGGAUCUACUGGGUUACCUUAA	0.0324 ± 0.011
CUUAAGGAGUGCAUCUACUGGGUUACCUUA	0.00692 ± 0.0052
CUUAAGCUCUGGAUCUACUGGAUUACCUAA	0.0281 ± 0.0081
CUUAUCCUCUGGAUCUACUGGGAUACCAAA	0.026 ± 0.011
CUUAUCCUCUGGAUCUACUGGGUUACCAA	0.123 ± 0.022
CUUAUCCUCUCGAUCUACUGGGAUACCUAA	0.0565 ± 0.013
CUUAAGGAGAGGAACUACAGGGUUACCUAA	0.00511 ± 0.0033
CUUAAGCUGUGGAUCUACUGGGUUACCUUA	0.0285 ± 0.014
CUUAAGGAGUCGAUCUACUCGGUUACCUAA	0.00291 ± 0.0026
CUUAAGGAGACGAUUUACUGGGUUACCUAA	0.00401 ± 0.0034
CUUAAGGAGACCUAGAACUGGGUUACCAUA [g4:g14:cont:t1A]	< 0.0001
CUUAAGCUCAGGAACUACUGGGUUACCUAA	0.0602 ± 0.017
CUUAACCUCUGGAUCUACAGGGUUACCUAA	0.095 ± 0.015
CUUAACCUCUGCAUCUACUGGGAUACCUAA	0.0444 ± 0.022
CUUAAGCUCUGGAUCUACUGGGUUACUCUAA	0.098 ± 0.025
CUUAAGGACUGGAACUACUGGGUUACCUUA	0.0114 ± 0.011
CUUAAGGUCUGGAUCUACUGCGUUACCUUA	0.00674 ± 0.003
CUUAAGCUCUGGAUACUACUGGGUUACCUAA	0.0326 ± 0.011

Sequence	pre-steady-state target cleavage rate
CUUAAGCUCUGGACUACUGGGUUACCUAA	0.0618 ± 0.015
CUUAAGGUCUGGAUCUACUGGGUUGCCUAA	0.0571 ± 0.013
CUUAACCUCUGGAUCAACUGGGUUACCAAA	0.0814 ± 0.022
CUUAAGGACUGGAUCUAGAGGGUUACCUAA	0.0214 ± 0.0071
CUUAAGGUCUGGUUCUACUGGGAUACCUAA	0.0287 ± 0.014
CUUAUCCUCAGGAUCUACUGGGUUUCCUAA	0.0547 ± 0.017
CUUAAGCUCUGGAUCUACUGGGUUACCAA	0.11 ± 0.024
CUUAUCCUCUGGAUCUACUGGGAUACCUAA	0.0509 ± 0.014
CUUAAGGAGACCUAGUACUGGGUUAGCUAA	< 0.0001
CUUAAGGAGUGGUUCUAGUGGGUUACCUAA	0.0079 ± 0.0042
CUUAAGGUCUGGAUCUACUGGGUUACUCUAA	0.0211 ± 0.007
CUUAAGGAGAGCAUCUACUCGGUUACCUAA	0.00338 ± 0.0022
CUUAAGGUCUGGAUCUACUGGGUUACCUCA	0.0544 ± 0.013
CUUAACGUCUCGAUCUACUGGGUUACCUAA	0.1 ± 0.019
CUUAUCCACUGGAUCUACUGGGUUACCUAA	0.124 ± 0.016
CUUAACCUGUCGAUCUACUGGGUUACCUAA	0.0671 ± 0.016
CUUAUCCUCUGGAUGUACUGGGUUACCAAA	0.0487 ± 0.013
CUUAACCUCUGGAUCUACUCGCUUACCUAA	< 0.0001
CUUAACCUCUGCAUCUACUGCGUUACCUAA	0.0245 ± 0.0094
CUUAAGGUCUCGAACUACUGGGUUACCUAA	0.0138 ± 0.0082
CUUAAGCUCUGGAUCUACUGGGUUACCAUA	0.0861 ± 0.017
CUUAAGGUCUCGAUCUACUGGGUUACCUAA	0.0762 ± 0.018
CUUAAGGAGAAGAUCUACUGGGUUACCUAA	0.00422 ± 0.0031

Sequence	pre-steady-state target cleavage rate
CUUAUCGUCUGGAUCUACUGGGUUACCUAA	0.0863 ± 0.015
CUUAACCUCUGGAUCAUCUGGGUUACCUAA	0.0737 ± 0.025
CUUAAGGACUGGCAUCUACUGGGUUACCUAA	0.0524 ± 0.018
CUUAUCCUGUGGAUCUUCUGGGUUACCUAA	0.0487 ± 0.014
CUUAUCCUCUGGAUCUACUGGGCUACCUAA	0.0338 ± 0.013
CUUAUCCUCUGGAUCUAGUGGGUAACCUAA	0.0205 ± 0.0054
CUUAUGCUCUGGAUGUACUGGGUUACCUAA	0.0965 ± 0.021
CUUAUCCUCUGGAUCUACUGGGUUAGCUUA	0.128 ± 0.031
CUUAAGGAGACCUAGUACAGGCUUACCUAA	< 0.0001
CUUAAGCUCUGGAUCUAUUGGGUUACCUAA	0.0302 ± 0.0083
CUUAAGCUCUGGUUCUACAGGGUUACCUAA	0.104 ± 0.021
CUUAACCUCUGGAUCUACAGGGUUAGCUAA	0.0246 ± 0.0085
CUUAAGGUCUGGAUCUUCUGGGUUACCUAA	0.0671 ± 0.015
CUUAUCCUCUGGAUCUACUGGGAUACGUAA	0.00621 ± 0.0037
CUUAAGGUGUGGAUCUACAGGGUUACCUAA	0.0839 ± 0.013
CUUAAGGUCUGGAUCUACUGGGUUACGUUA	0.0579 ± 0.016
CUUAACCUCUGGAUCUACUGGGAUACCUAA	0.0534 ± 0.015
CUUAACCUCUGGAUCAACUGGGUUACCUUA	0.0681 ± 0.017
CUUAUGCUCUGGAACUACUGGGUUACCUAA	0.0923 ± 0.019
CUUAAGCUCUGGUUCUACUGGGUUACCAAA	0.199 ± 0.063
CUUAAGGAGUGGAUCUACUGGGUUACCUAC [g2:g21:cont:t1C]	0.0381 ± 0.011
CUUAACGUCUGGAUCUACUGGGUUACGUAA	0.0333 ± 0.0083
